The list shows a part of the results. Many values rest on one well or one pass, so single values are uncertain.
tested on: WM115; experiment: cell count relative to DMSO control; melanoma cells; higher = more viable cells; details: library dose: standard library concentration; 72 h
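Also: cells treated in 1,536-well plates, then fixed and DAPI-stained, with nuclei counted from automated high-throughput microscope images.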

Compound | cell count [%]
Cc1ccc(Nc2nccc(N(C)c3ccc4c(C)n(C)nc4c3)n2)cc1S(N)(=O)=O [Pazopanib] + C#Cc1cccc(Nc2ncnc3cc(OCCOC)c(OCCOC)cc23)c1 [erlotinib] (first compound 2 µM, partner dose 4 µM) | 61.8
O=C(/C=C/c1cccnc1)NCCCCC1CCN(C(=O)c2ccccc2)CC1 + CN(NC(=O)CC(=O)NN(C)C(=S)c1ccccc1)C(=S)c1ccccc1 [STA4783] (first compound 0.05 µM, partner dose 0.03 µM) | 15.4
CC1(C)CCC(c2ccc(Cl)cc2)=C(CN2CCN(c3ccc(C(=O)NS(=O)(=O)c4ccc(N[C@H](CCN5CCOCC5)CSc5ccccc5)c(S(=O)(=O)C(F)(F)F)c4)cc3)CC2)C1 + O=C(O)C(=O)Nc1sc2c(c1C(=O)O)CCNC2 [TCS401] (first compound 2 µM, partner dose 8.33333 µM) | 88.4
Cc1ccc(Nc2nccc(N(C)c3ccc4c(C)n(C)nc4c3)n2)cc1S(N)(=O)=O [Pazopanib] + O=S(=O)(c1ccccc1)N(CC(F)(F)F)c1ccc(C(O)(C(F)(F)F)C(F)(F)F)cc1 [T0901317] (first compound 2 µM, partner dose 7 µM) | 88.4
O=C(/C=C/c1cccnc1)NCCCCC1CCN(C(=O)c2ccccc2)CC1 + COc1ccc(COc2ccc(Cc3cnc(N)nc3N)cc2OC)cc1 [GW2580] (first compound 0.05 µM, partner dose 5 µM) | 82.5
Cc1ccc(Nc2nccc(N(C)c3ccc4c(C)n(C)nc4c3)n2)cc1S(N)(=O)=O [Pazopanib] + CCCCCCCCCCCC1=C(O)C(=O)C=C(O)C1=O [Embelin] (first compound 2 µM, partner dose 6 µM) | 99.2
Cc1ccc(Nc2nccc(N(C)c3ccc4c(C)n(C)nc4c3)n2)cc1S(N)(=O)=O [Pazopanib] + O=c1cc(-c2cccc3c2Sc2ccccc2S3)oc(N2CCOCC2)c1 [KU55933] (first compound 2 µM, partner dose 5 µM) | 70
O=C(/C=C/c1cccnc1)NCCCCC1CCN(C(=O)c2ccccc2)CC1 + O=C(Nc1cccc(Cl)c1)Nc1ncc(CCNc2ncnc3ccsc23)s1 [SNS314] (first compound 0.05 µM, partner dose 0.004 µM) | 45.2
O=C(/C=C/c1cccnc1)NCCCCC1CCN(C(=O)c2ccccc2)CC1 + COc1cc(N2CCC(N3CCN(C)CC3)CC2)ccc1Nc1ncc(Cl)c(Nc2ccccc2S(=O)(=O)C(C)C)n1 [NVP-TAE684] (first compound 0.05 µM, partner dose 0.4 µM) | 82.3
Cc1ccc(Nc2nccc(N(C)c3ccc4c(C)n(C)nc4c3)n2)cc1S(N)(=O)=O [Pazopanib] + COc1cc2ncnc(Nc3ccc(Oc4ccccc4)cc3)c2cc1OC [SrcI1] (first compound 2 µM, partner dose 10 µM) | 75.2
Cc1ccc(Nc2nccc(N(C)c3ccc4c(C)n(C)nc4c3)n2)cc1S(N)(=O)=O [Pazopanib] + OCCn1cc(-c2cnc3nnn(Cc4ccc5ncccc5c4)c3n2)cn1 [PF04217903] (first compound 2 µM, partner dose 5 µM) | 90.6
Cc1ccc(Nc2nccc(N(C)c3ccc4c(C)n(C)nc4c3)n2)cc1S(N)(=O)=O [Pazopanib] + Cn1cc(/C=C2\C(=O)Nc3cccnc32)c2ccccc21 [GW441756] (first compound 2 µM, partner dose 2 µM) | 117
Cc1ccc(Nc2nccc(N(C)c3ccc4c(C)n(C)nc4c3)n2)cc1S(N)(=O)=O [Pazopanib] + OCc1c[nH]c2ccccc12 [Indole-3-carbinol] (first compound 2 µM, partner dose 4 µM) | 101
CC1(C)CCC(c2ccc(Cl)cc2)=C(CN2CCN(c3ccc(C(=O)NS(=O)(=O)c4ccc(N[C@H](CCN5CCOCC5)CSc5ccccc5)c(S(=O)(=O)C(F)(F)F)c4)cc3)CC2)C1 + COc1cc2c(Oc3ccc4[nH]c(C)cc4c3F)ncnc2cc1OCCCN1CCCC1 [cediranib] (first compound 2 µM, partner dose 2 µM) | 78
CC1(C)CCC(c2ccc(Cl)cc2)=C(CN2CCN(c3ccc(C(=O)NS(=O)(=O)c4ccc(N[C@H](CCN5CCOCC5)CSc5ccccc5)c(S(=O)(=O)C(F)(F)F)c4)cc3)CC2)C1 + COc1cc(N2CCC(N3CCN(C)CC3)CC2)ccc1Nc1ncc(Cl)c(Nc2ccccc2S(=O)(=O)C(C)C)n1 [NVP-TAE684] (first compound 2 µM, partner dose 0.4 µM) | 60.7

— the supplement of paper PMC4604168 (melanoma cell lines)
